In patent publication US20260055188A1 (SHENGHE CHINA BIOPHARMACEUTICAL, published 2026):

T1: Human-TNFR2-His (manufacturer: SINO, CAT: 10417-H08H) (human, UniProt P20333 23-257)
T1 construct: Bought protein; also called human TNFR2 protein; TNFR2 protein; not shown: His tag
T1 sequence (looked up): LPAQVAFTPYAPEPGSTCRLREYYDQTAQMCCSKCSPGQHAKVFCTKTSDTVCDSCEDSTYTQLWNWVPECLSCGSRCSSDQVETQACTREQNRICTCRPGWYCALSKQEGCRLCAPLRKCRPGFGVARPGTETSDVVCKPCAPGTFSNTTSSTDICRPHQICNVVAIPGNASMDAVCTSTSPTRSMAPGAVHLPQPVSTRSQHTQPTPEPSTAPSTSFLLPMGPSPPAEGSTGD

T2: human CD24 on MCF-7 tumor cells (human, UniProt P25063 27-59)
T2 construct: whole, on cells; also called CD24 protein; MCF-7 tumor cells with high expression of human CD24
T2 chain (looked up): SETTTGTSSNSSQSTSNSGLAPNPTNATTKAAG


Key:
[1] = target: T1, Human-TNFR2-His (manufacturer: SINO, …); test: flow cytometry, bridging: CHOK1-18.2 cells (human Claudin18.2) + 150 nM antibody + human TNFR2-His, anti-His FITC detection
Experimental: (§1) Human TNFR2 protein (SINO, CAT: 10417-H08H) was sequentially added into 96-well plate with 100 μL/well, and after mixing, the 96-well plate was incubated at 4° C. for 1 h. Pre-cooled dilution was added and washed once, centrifuged (3000 rpm, 3 min), and the supernatant was discarded, and the cells were harvested. Fluorescent secondary antibody Anti-6X-his tag antibody (FITC) (manufacturer: abcam, Cat. No.: ab1206, Lot No.: GR3420599-3) was taken and diluted at the used concentration of 1:500. 100 μL of dilution was added to the blank control group, and 100 μL of fluorescent secondary antibody dilution was added to the rest of the sample groups respectively. After incubation for 0.5 h at room temperature and 4° C. protected from light, PBS was added to wash and centrifuged (3000 rpm, 3 min) twice. After discarding the supernatant, 80 μL of the dilution was added and resuspended.

[2] = target: T1, Human-TNFR2-His (manufacturer: SINO, …); test: BLI, antibody on AHC sensor, 100 nM human-TNFR2-His in solution
Experimental: The AHC sensor was soaked in 0.02% PBST (0.02% Tween 20, pH 7.4, 1×PBS) as a buffer for 600 s to remove the sucrose covering the sensor surface. The AHC sensor was equilibrated with 0.02% PBST (0.02% Tween 20, pH 7.4, 1×PBS) as a buffer for 60 s, the antibody in the sample plate was solidified for 300 s, and the secondary equilibration buffer was used for 180 s. 100 nM human-TNFR2-His (manufacturer: SINO, CAT: 10417-H08H, LOT: LC12SE2902) protein was bound to the antibody for 300 s and then dissociated for 600 s. After dissociation, 10 mM glycine (pH 2.0) was used as a regeneration buffer for 30 s. The sensor was regenerated with 10 mM glycine (pH 2.0).

[3] = target: T2, human CD24 on MCF-7 tumor cells; test: flow cytometry on MCF-7 cells, 150 nM antibody, anti-human IgG Fc detection
Experimental: 100 μL of dilution was added to the blank control group, and 100 μL of fluorescent secondary antibody dilution was added to the rest of the sample groups respectively. After incubation for 0.5 h at room temperature and 4° C. protected from light, PBS was added to wash and centrifuged (3000 rpm, 3 min) twice. After discarding the supernatant, 80 μL of the dilution was added and resuspended.

[4] = target: T1, Human-TNFR2-His (manufacturer: SINO, …); test: flow cytometry, bridging: MCF-7 cells (human CD24) + 150 nM antibody + human TNFR2-His, anti-His FITC detection
Experimental: as §1, with “Pre-cooled” for “Human TNFR2 protein (SINO, CAT: 10417-H08H) was sequentially added into 96-well plate with 100 μL/well, and after mixing, the 96-well plate was incubated at 4° C. for 1 h. Pre-cooled”

[5] = target: T1, Human-TNFR2-His (manufacturer: SINO, …); test: ELISA: Human-TNFR2-His coated (0.3 µg/mL), antibody titrated, goat anti-human IgG Fc detection, OD450 (Example 10)
Experimental: Human-TNFR2-His (manufacturer: SINO, CAT: 10417-H08H, LOT: LC12SE2902) was diluted to 0.3 μg/mL with a coating solution (1×PBS, pH7.4), and coated into a 96-well ELISA plate at 100 μL/well overnight at 4° C. The coating solution was poured off. Each well was washed with 1×PBST at 300 μL, washed 4 times with a plate washer, and patted dry on a flat paper. It was blocked with 3% skim milk powder at 300 μL/well, and incubated at 37° C. for 1 h. The blocking solution was poured off, washed 4 times with a plate washer, and patted dry on a flat paper. Negative control and positive control were set up. […] The positive control and antibody were diluted to 10 μg/mL with 3% skim milk powder as the starting concentration, and then diluted by 3-fold gradient (11 gradients in total). A blank well was set up and only the diluent was added. It was incubated at 37° C. for 1 h at 100 μL/well. The liquid in the well was discarded, washed 4 times with a plate washer, and patted dry on a flat paper. Goat anti-human IgG Fc was diluted with 3% skim milk powder at 1:20000, and incubated at 37° C. for 1 h at 100 μL/well. It was washed 6 times with a plate washer, and patted dry on a flat paper. TMB color developing solution was added at 100 μL/well, and wrapped with aluminum foil. Color development was performed at 37° C. in the dark for 8 min. Termination solution 1M HCl was added to terminate the color development reaction at 100 μL/well. Readings were taken at 450 nm on an ELISA reader.

Row | E1 Mean FITC-A [1] | Kd [2] [nM] | koff [2] [s⁻¹] | kon [2] [M⁻¹ s⁻¹] | E1 Mean PE-A [3] | E1 Mean FITC-A [4] | EC50 (read off the curve) [5] [nM] | Binder
1 | 281000 | – | – | – | – | – | – | TC-A1 (bispecific antibody, human IgG1, kappa) light: DIVMTQSPSSLAVSLGERATINCKSSQSLLQSGNQKNYLTWYQQKPGQPPKLLIYWASTRESGVPDRFSGSGSGTDFTLTISSLQAEDVAVYYCQNNYIFPLTFGQGTKLEIKRTVAAPSVFIFPPSDEQLKSGTASVVCLLNNFYPREAKVQWKVDNALQSGNSQESVTEQDSKDSTYSLSSTLTLSKADYEKHKVYACEVTHQGLSSPVTKSFNRGEC heavy: QVQLVQSGAEVKKPGASVKVSCKASGYTFTSYWMHWVRQAPGQRLEWMGSIESNSAGTKYDERFKTRVTITRDTSASTAYMELSSLRSEDTAVYYCARFYYGNSFAYWGQGTLVTVSS[not shown - human IgG1 constant region]GGGGSGGGGSGGGGSEVQLVQSGAEVKKPGATVKISCKVSGYSITDYLLHWVQQAPGKCLEWMGWIDPEDAKTKYGQKFQSRVTITADTSTDTAYMELSSLRSEDTAVYYCAANSGTGTMDAWGQGTLVTVSSGGGGSGGGGSGGGGSDIVMTQSPATLSVSPGERATLSCKASQNVGSNVDWYQQKPGQSPRVLIYKASIRYTGIPARFSGSGSGTEFTLTISILQSEDFAVYFCMQSKSYPITFGCGTKLEIK
2 | – | 0.523 | 0.000123 | 236000 | 3.28e+06 | 7.23e+06 | ~0.4 | TD-A1 (bispecific antibody, human IgG1, kappa, also called antibody TD-A1) light: DIVMTQSPSSLAVSLGERATINCKSSQSLLYSNDQKNYLAWYQQKPGQSPKLLIYWASTRESGVPDRFSGSGSGTDFTLTISSLQAEDVAVYYCQQYFIYPLTFGGGTKLELKRTVAAPSVFIFPPSDEQLKSGTASVVCLLNNFYPREAKVQWKVDNALQSGNSQESVTEQDSKDSTYSLSSTLTLSKADYEKHKVYACEVTHQGLSSPVTKSFNRGEC heavy: EVQLQESGPGLVKPSQTLSLTCTVSGYSITSGYTWHWIRQFPGNKLEWIGHIQYTGNTKYNPSLESRITISRDTSKNQFSLKLSSVTAADTATYYCARGSTNSNDYWGQGTLVTVSS[not shown - human IgG1 constant region]GGGGSGGGGSGGGGSEVQLVQSGAEVKKPGATVKISCKVSGYSITDYLLHWVQQAPGKCLEWMGWIDPEDAKTKYGQKFQSRVTITADTSTDTAYMELSSLRSEDTAVYYCAANSGTGTMDAWGQGTLVTVSSGGGGSGGGGSGGGGSDIVMTQSPATLSVSPGERATLSCKASQNVGSNVDWYQQKPGQSPRVLIYKASIRYTGIPARFSGSGSGTEFTLTISILQSEDFAVYFCMQSKSYPITFGCGTKLEIK

Further lines, the binder ahead of its results:

Row | Binder | E1 Mean FITC-A [1] | Kd [2] [nM] | koff [2] [s⁻¹] | kon [2] [M⁻¹ s⁻¹] | E1 Mean PE-A [3] | E1 Mean FITC-A [4] | EC50 (read off the curve) [5] [nM]
3 | TD-D1 (bispecific antibody, human IgG1, kappa, also called antibody TD-D1) light: DIVMTQSPSSLAVSLGERATINCKSSQSLLYSNDQKNYLAWYQQKPGQSPKLLIYWASTRESGVPDRFSGSGSGTDFTLTISSLQAEDVAVYYCQQYFIYPLTFGGGTKLELKRTVAAPSVFIFPPSDEQLKSGTASVVCLLNNFYPREAKVQWKVDNALQSGNSQESVTEQDSKDSTYSLSSTLTLSKADYEKHKVYACEVTHQGLSSPVTKSFNRGEC heavy: EVQLVESGGGLVQPGGSLRLSCAASGSRLDYYAVAWFRQAPGKEREEVSCITYSGGSTNYAESVKGRFTISRDNSKNTLYLQMNSLRAEDTAVYYCTTEPYGSSCPLSGYDTWGQGTLVTVSSGGGGSGGGGSGGGGSEVQLQESGPGLVKPSQTLSLTCTVSGYSITSGYTWHWIRQFPGNKLEWIGHIQYTGNTKYNPSLESRITISRDTSKNQFSLKLSSVTAADTATYYCARGSTNSNDYWGQGTLVTVSS[not shown - human IgG1 constant region] | – | 1.44 | 0.000667 | 464000 | 4.03e+06 | 6.32e+06 | ~0.07
4 | TD-D2 (bispecific antibody, human IgG4 S228P, kappa, also called antibody TD-D2) light: DIVMTQSPSSLAVSLGERATINCKSSQSLLYSNDQKNYLAWYQQKPGQSPKLLIYWASTRESGVPDRFSGSGSGTDFTLTISSLQAEDVAVYYCQQYFIYPLTFGGGTKLELKRTVAAPSVFIFPPSDEQLKSGTASVVCLLNNFYPREAKVQWKVDNALQSGNSQESVTEQDSKDSTYSLSSTLTLSKADYEKHKVYACEVTHQGLSSPVTKSFNRGEC heavy: EVQLVESGGGLVQPGGSLRLSCAASGSRLDYYAVAWFRQAPGKEREEVSCITYSGGSTNYAESVKGRFTISRDNSKNTLYLQMNSLRAEDTAVYYCTTEPYGSSCPLSGYDTWGQGTLVTVSSGGGGSGGGGSGGGGSEVQLQESGPGLVKPSQTLSLTCTVSGYSITSGYTWHWIRQFPGNKLEWIGHIQYTGNTKYNPSLESRITISRDTSKNQFSLKLSSVTAADTATYYCARGSTNSNDYWGQGTLVTVSSASTKGPSVFPLAPCSRSTSESTAALGCLVKDYFPEPVTVSWNSGALTSGVHTFPAVLQSSGLYSLSSVVTVPSSSLGTKTYTCNVDHKPSNTKVDKRV[not shown - human IgG4 Fc with S228P (EU numbers)] | – | – | – | – | – | – | ~0.1
5 | TD-A2 (bispecific antibody, human IgG4 S228P, kappa, also called antibody TD-A2) light: DIVMTQSPSSLAVSLGERATINCKSSQSLLYSNDQKNYLAWYQQKPGQSPKLLIYWASTRESGVPDRFSGSGSGTDFTLTISSLQAEDVAVYYCQQYFIYPLTFGGGTKLELKRTVAAPSVFIFPPSDEQLKSGTASVVCLLNNFYPREAKVQWKVDNALQSGNSQESVTEQDSKDSTYSLSSTLTLSKADYEKHKVYACEVTHQGLSSPVTKSFNRGEC heavy: EVQLQESGPGLVKPSQTLSLTCTVSGYSITSGYTWHWIRQFPGNKLEWIGHIQYTGNTKYNPSLESRITISRDTSKNQFSLKLSSVTAADTATYYCARGSTNSNDYWGQGTLVTVSSASTKGPSVFPLAPCSRSTSESTAALGCLVKDYFPEPVTVSWNSGALTSGVHTFPAVLQSSGLYSLSSVVTVPSSSLGTKTYTCNVDHKPSNTKVDKRV[not shown - human IgG4 Fc with S228P (EU numbers)]GGGGSGGGGSGGGGSEVQLVQSGAEVKKPGATVKISCKVSGYSITDYLLHWVQQAPGKCLEWMGWIDPEDAKTKYGQKFQSRVTITADTSTDTAYMELSSLRSEDTAVYYCAANSGTGTMDAWGQGTLVTVSSGGGGSGGGGSGGGGSDIVMTQSPATLSVSPGERATLSCKASQNVGSNVDWYQQKPGQSPRVLIYKASIRYTGIPARFSGSGSGTEFTLTISILQSEDFAVYFCMQSKSYPITFGCGTKLEIK | – | – | – | – | – | – | ~0.5
